# The campaign covered roughly 350,000 compounds. About 9,900 (2.8%) were called active. The shares of active, inactive and inconclusive entries below differ from those in the screen. The call rests on the fitted dose curve; in most records, active means well fitted activation curve with a large enough effect; inconclusive means small, poorly fitted or top-dose-only effect; inactive means no such curve, though single readings can be large or run the other way. Potencies of inconclusive entries are left out as doubtful fits.
# Assay: A quantitative high throughput screen for small molecules that induce DNA re-replication in MCF 10a normal breast cells. Further: nearly all actives have a fitted effect of over 50% in size. On activity, positive = re-replication: % of control where 0% means no effect.
# Settings: MCF 10A DNA re-replication, Hoechst nuclear intensity, 48 h; activity, positive = re-replication: at 46.1 µM (top of the series)
# Potency means the concentration at half of the fitted maximal effect; tags describe the fitted curve by direction and shape.
Structure (SMILES),Potency,"activity, positive = re-replication"
O=C1C=C(Nc2ccc(Cl)cc2)CC(c2ccco2)C1 (configuration not stated),"inconclusive [activator, single point]",–
COc1ccc(-c2noc(N3CCC(C(=O)NCc4ccccc4Cl)CC3)n2)cc1,"inconclusive [activator, single point]",–
c1ccc(C2=NNC(=NC3CC3)SC2)cc1,–,inactive: -9.37%
N#C/C(=C\c1ccc(-c2ccc(Br)cc2)o1)C(=O)NCCc1c[nH]c2ccccc12,"inconclusive [activator, partial curve]",–
Cn1c(=O)c2c(nc(NCCNC(=O)c3ccco3)n2Cc2ccc(Cl)cc2Cl)n(C)c1=O,–,inactive: 0.463%
O=[N+]([O-])c1cccnc1N1CCC(c2cc(-c3ccc(Cl)cc3)n[nH]2)CC1,"inconclusive [activator, single point]",–
COc1cc(C(=O)NCc2ccc3[nH]c(C)cc3c2)cc(OC)c1OC,"inconclusive [activator, single point]",–
Cc1nc2sc(C(=O)OC(C)C)c(N)c2c(C)c1C,"inconclusive [activator, single point]",–
O=C(CN1CCN(c2ccccc2O)CC1)Nc1ccc(S(=O)(=O)N2CCCCCC2)cc1,"inconclusive [activator, single point]",–
O=C(COc1ccc2c(c1)OCO2)NC12CC3CC(CC(C3)C1)C2,"inconclusive [activator, single point]",–
CC1CCc2c(sc3ncnc(NCCCOC(C)C)c23)C1 (configuration not stated),"inconclusive [activator, single point]",–
Cc1nc(-c2ccccc2)nc2[nH]c(-c3ccccc3)cc(=O)c12,–,inactive: 9.09%
COc1ccc(C(=O)N2CCCC(Nc3ccc(C)c(C)c3)C2)cc1F (configuration not stated),"inconclusive [activator, single point]",–
C/C(=C\c1ccccc1)C(=O)N1CCN(Cc2ccc3c(c2)OCO3)CC1,"inconclusive [activator, single point]",–
CC=CC1=C(C(=O)O)N2C(=O)[C@H](NC(=O)[C@H](N)c3ccc(O)cc3)[C@@H]2SC1,–,inactive: 1.1%
CNc1ccccc1C(C)(C)c1cc(-c2cc(C)cc(C)c2)no1,"inconclusive [activator, partial curve]",–
CCN(CC)S(=O)(=O)c1ccc(Cl)c(C(=O)Nc2nncs2)c1,–,inactive: 10.4%
COc1ccc(CN2C(=O)c3cccnc3C2=O)cc1S(=O)(=O)NC1CCCCC1,"inconclusive [activator, single point]",–
COc1ccc(C(=O)CCC(=O)Nc2cc(Cl)c(O)c(Cl)c2)cc1,"inconclusive [activator, single point]",–
NC1=C(Cl)C(=O)c2ccc(S(N)(=O)=O)cc2C1=O,active: 1.46 µM,–
CCc1nc(NCCC(C)C)c(C#N)c2c1CCCC2,–,inactive: 7.15%
COc1ccc(CNc2nc(SCc3cc(=O)n4cc(Cl)ccc4n3)nc3ccccc23)cc1,"inconclusive [activator, partial curve, poor fit]",–
Cn1cc(C(=O)N/N=C/C2=C(N3CCOCC3)C(=C/c3ccc([N+](=O)[O-])cc3)/CC2)ccc1=O,–,inactive: -3.38%

Structure (SMILES),Potency,"activity, positive = re-replication"
O=C(Sc1ccccc1)c1cccc(Cn2cc(C(F)(F)F)ccc2=O)c1,"inconclusive [activator, partial curve, poor fit]",–
COC(=O)c1ccc(CN2CCC(Oc3ccc(C(=O)N4CCCCC4)cc3)CC2)cc1,"inconclusive [activator, single point]",–
O=S1(=O)c2c(F)cccc2O[C@@H](COCc2ccccc2)CN1CCc1ccc(F)cc1,"inconclusive [activator, single point]",–
O=C(O)CN1C(=O)/C(=C\c2cc(Br)ccc2OCc2ccccc2Cl)SC1=S,"inconclusive [activator, partial curve, poor fit]",–
Cc1ccc(-c2csc3nc4c5ccccc5c(NCCCN(C)C)nn4c(=O)c23)cc1,active: 18.4 µM,–
O=C(CCl)Nc1ccc(S(=O)(=O)NC2=NCCCCC2)cc1,active: 20.6 µM,–
O=C(Nc1ccc(Cl)cn1)c1cc2c(s1)-c1ccccc1OC2,"inconclusive [activator, full curve]",–
O=C(/C=C/c1ccccc1)c1ccccc1,"inconclusive [activator, partial curve, poor fit]",–
O=C(CSc1nnc(CNC(=O)c2cccs2)o1)Nc1ccccc1F,–,inactive: 3.37%
Nc1cnc(CNc2ccccc2Cl)cn1,"inconclusive [activator, single point]",–
O=C1/C(=C/c2ccc(O)c([N+](=O)[O-])c2)SC(=S)N1Cc1ccccc1,"inconclusive [activator, full curve]",–
O=C(O)CCCn1cc(NC(=O)COc2cccc(Cl)c2)cn1,"inconclusive [activator, single point]",–
CCOC(=O)c1sc(NC(=O)CSc2nc(C)cc(C(F)(F)F)n2)c(C#N)c1C,"inconclusive [activator, single point]",–
O=C(NCc1ccco1)c1csc(Nc2ccccc2Cl)n1,"inconclusive [activator, partial curve, poor fit]",–
COc1ccc(N(C)S(=O)(=O)c2cccc(C(=O)Nc3nc4ccccc4[nH]3)c2)cc1,"inconclusive [activator, partial curve, poor fit]",–
N#Cc1cn(CC(=O)N2CCCC2)c2ccccc12,"inconclusive [activator, single point]",–
CC(C)CCNc1nc2c(c(=O)n(Cc3cccc(F)c3)c(=O)n2C)n1C,"inconclusive [activator, full curve, poor fit]",–
CCOc1ccc(CCNC(=O)Cc2ccc(NC(=O)C3=C(C)OCCS3)cc2)cc1,–,inactive: 3.13%
CCOc1ccc(CNC(=O)C2Cc3cc(S(=O)(=O)N4CCCCC4)ccc3N2C(C)=O)cc1 (configuration not stated),–,inactive: 2.96%
O=C(CCN1C(=O)/C(=C/c2ccccc2)SC1=S)NC1CCS(=O)(=O)C1 (configuration not stated),"inconclusive [activator, partial curve, poor fit]",–
CCOC(=O)c1c(N)sc2c1CCC1C(=O)N(C3CCCCC3)C(=O)C21 (configuration not stated),"inconclusive [activator, single point]",–
COc1ccccc1NC(=O)Nc1ccnn1C1CCN(C(=O)c2cscn2)CC1,"inconclusive [activator, single point]",–
NC1=NC[C@@H](CC2CCCCC2)N1CCc1cc(C(F)(F)F)cc(C(F)(F)F)c1,"inconclusive [activator, single point]",–

Structure (SMILES),Potency,"activity, positive = re-replication"
CCCn1nnnc1SCC(=O)NCc1ccc(OC)cc1,–,inactive: 0.166%
O=C1/C(=C/C=C/c2ccccc2)Oc2c1ccc(O)c2CN1CCN(CCO)CC1,"inconclusive [activator, single point]",–
O=C(CCCl)Nc1nnc(SCC(=O)NC2CCCC2)s1,active: 18.4 µM,–
Cn1c(=O)c([N+](=O)[O-])c(-n2cnc3ccccc32)c2ccccc21,"inconclusive [activator, single point]",–
COc1ccc2c(c1)C(=O)[C@@H](O)[C@H](c1ccc(OC)c(Br)c1)O2,"inconclusive [activator, partial curve, poor fit]",–
Cc1coc(C)c1C(=O)CC1(O)C(=O)N(Cc2ccccc2)c2ccccc21 (configuration not stated),"inconclusive [activator, single point]",–
COc1cc(NC(=O)C2=CC(c3cccs3)=NS(=O)(=O)N2C)cc(OC)c1OC,–,inactive: 6.17%
COc1ccc(OC)c(C(=O)COC(=O)c2ccc(C)o2)c1,–,inactive: 8.3%
CC1CCN(C(=O)c2[nH]cnc2C(=O)NCc2ccccc2)CC1,"inconclusive [activator, single point]",–
O=C(Cc1ccc(Cl)cc1)Nc1nc2ccccc2[nH]1,–,inactive: 6.26%
CSc1cccc(NC(=S)N(CCC(C)C)C2CCN(C(C)C)CC2)c1,–,inactive: 3.37%
CCOCCCNC(=O)C(NC(=O)c1ccccc1O)c1ccc(C)cc1 (configuration not stated),"inconclusive [activator, single point]",–
Clc1ccc(CSc2nnnn2-c2ccc3c(c2)OCO3)c(Cl)c1,"inconclusive [activator, full curve, poor fit]",–
O=c1c2ccccc2sn1-c1cc(S(=O)(=O)N2CCOCC2)ccc1N1CCOCC1,–,inactive: -5.74%
Cn1c(-c2ccsc2)c(-c2cccs2)c2cc(-c3ccc4cc[nH]c4c3)ccc21,–,inactive: -46.8%
CCOc1cccc(CNCc2cccnc2)c1OCc1ccccc1,"inconclusive [activator, partial curve, poor fit]",–
COc1cc(C2c3cc4c(cc3OC(N3CCCCC3)C2C)OCO4)cc(OC)c1O (configuration not stated),"inconclusive [activator, single point]",–
CC1(C)Cc2c(sc(NC(=O)COc3ccc(Cl)cc3)c2C#N)C(C)(C)N1,"inconclusive [activator, full curve, poor fit]",–
CC(=O)Nc1ccc(-n2cc(-c3ccccc3)[nH]c2=S)cc1,–,inactive: -13.3%
COc1ccc(C(=O)NC(=S)NNC(=O)c2ccc(NC(=O)C(C)C)cc2)cc1,"inconclusive [activator, single point]",–
CCN(Cc1ccccc1)Cc1ccc(OCc2ccccc2)c(OC)c1,"inconclusive [activator, partial curve, poor fit]",–

# Reference: PubChem BioAssay AID624296 (National Center for Advancing Translational Sciences (NCATS), 2012)
